We go through 113 molecules from PubChem BioAssay AID488969 (Vanderbilt High Throughput Screening Facility, 2010).

The structures appear in SMILES notation. Several values for one entry are separate records, joined by “and”; a condition that tells them apart may be missing. Equal values may be shown once. The full ranking holds about 110,000 compounds; the median of “z-score” is about -0.1, and the highest 2% start at about 2. The list shows a part of the results.

For the experiment, the target named is Metabotropic glutamate receptor 8 (Rattus norvegicus) (UniProt P70579). The experiment can be described thus: rat mGluR8 modulators via GIRK flux, primary screen, cell-based, thallium flux, HTS (AID 488969). Conditions: HEK293 rat mGluR8, GIRK (G protein-gated inwardly rectifying potassium channel) thallium flux, FluoZin2; at 10 µM; stronger effect = higher value; submaximal glutamate (EC20) added with thallium.
Chain of UniProt P70579 (P70579 whole entry, looked up): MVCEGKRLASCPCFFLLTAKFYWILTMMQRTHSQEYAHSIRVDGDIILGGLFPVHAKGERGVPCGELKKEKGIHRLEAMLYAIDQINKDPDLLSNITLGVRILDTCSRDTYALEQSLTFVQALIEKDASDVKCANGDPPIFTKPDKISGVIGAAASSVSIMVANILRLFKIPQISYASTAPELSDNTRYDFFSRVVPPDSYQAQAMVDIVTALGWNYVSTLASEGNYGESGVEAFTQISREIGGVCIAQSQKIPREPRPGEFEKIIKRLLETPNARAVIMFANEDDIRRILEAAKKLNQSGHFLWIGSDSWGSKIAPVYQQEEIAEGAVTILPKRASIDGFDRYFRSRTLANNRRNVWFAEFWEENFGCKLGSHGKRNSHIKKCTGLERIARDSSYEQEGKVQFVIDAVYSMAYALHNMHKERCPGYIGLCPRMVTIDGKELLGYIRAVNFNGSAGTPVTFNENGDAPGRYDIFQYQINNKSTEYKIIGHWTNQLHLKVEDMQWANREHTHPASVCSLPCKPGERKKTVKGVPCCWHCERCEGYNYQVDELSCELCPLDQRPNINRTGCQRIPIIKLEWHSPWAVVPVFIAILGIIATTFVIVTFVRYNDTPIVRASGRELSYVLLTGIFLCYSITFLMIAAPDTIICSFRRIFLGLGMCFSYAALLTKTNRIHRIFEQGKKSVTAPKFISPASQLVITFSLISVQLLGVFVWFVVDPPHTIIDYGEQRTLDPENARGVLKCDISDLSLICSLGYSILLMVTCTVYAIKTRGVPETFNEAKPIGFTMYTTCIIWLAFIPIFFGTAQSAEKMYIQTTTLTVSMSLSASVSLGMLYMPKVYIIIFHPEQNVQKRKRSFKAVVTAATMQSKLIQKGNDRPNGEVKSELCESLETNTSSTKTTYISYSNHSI
The molecule `O=C(NC1=NCCS1)c1ccc(Cl)s1` came in with a z-score of 1.35. Regarding `CC1CCCCN1S(=O)(=O)c1ccc(N(C(=O)c2cnccn2)C(C(=O)NC2CCCCC2)c2cccs2)cc1` (stereo not drawn), the z-score is -0.263. The value for `COC(=O)c1[nH]c2cc(OC)ccc2c1NC(=O)CN1CCN(c2cccc(C)c2)C(C)C1` (stereo not drawn) was -0.284; that for `CC1CCN(C(=O)CSc2nnc(-c3cc4ccccc4cc3O)n2Cc2ccco2)CC1` was -1.69.

In the case of `CC(C)CCNC(=O)NC(=O)CSc1nnc2ccccn12`, the z-score was 0.0329. `O=C(CSc1nc(C2CC2)nc2ccccc12)N1c2ccccc2Sc2ccccc21` had a z-score of 0.0302.

As to `CCCn1c(CN2CCN(C)CC2)nc2ccccc21`, the z-score is -0.31.

For the molecule `Cc1csc(SCC(=O)Nc2cccc3nsnc23)n1`, the z-score is -0.0818. For the molecule `Clc1cccc(Cl)c1CSc1nnc(-c2sccc2-n2cccc2)o1`, the z-score is -0.0528. The value for `C/C(=N\NC(=O)c1ccn(C)n1)c1ccc(NC(=O)C2CCCC2)cc1` was 0.533. `Cc1ccc(S(=O)(=O)CC2CSc3nc4ccccc4n32)cc1` (stereo not drawn) registered a z-score of -0.024.

For `CCn1c(SCC(=O)N/N=C/c2ccc(C)s2)nc2ccccc21`, the z-score came out at 0.177. `COc1ccccc1N1CCN(C(=O)COc2ccc(C)cc2Br)CC1` returned a z-score of 0.883. The molecule `C=CCNC(=O)c1ccccc1NS(=O)(=O)c1ccc(SC)cc1` yielded a z-score of 0.228. The molecule `Cc1cccc(NC(=O)c2sc(-c3ccccc3)nc2-c2ccc([N+](=O)[O-])cc2)c1` displayed a z-score of -0.653. Take `O=S(=O)(NCCc1csc(-c2ccccc2)n1)c1ccc2c(c1)OCCO2`: the z-score was -1.46. Regarding `Cc1csc(NC(=O)CCS(=O)(=O)c2ccc(Br)cc2)n1`, the z-score is 0.039. Molecule `O=C(NCc1ccco1)c1ccc(COCC(F)(F)F)cc1` registered a z-score of -0.0156. In turn, `C=CCNC(=S)NNC(=O)c1cccn(Cc2ccc(Cl)cc2Cl)c1=O` displayed a z-score of -0.116.

The molecule `CCn1c(SCC(=O)N2CCCCC2C)nc2ccsc2c1=O` (stereo not drawn) registered a z-score of -1.46. In turn, `O/N=C(\COc1ccccc1O)c1ccccc1` gave a z-score of -0.203. `Cc1sc2ncnc(OCC(=O)N3CCN(S(=O)(=O)c4ccc(Cl)cc4)CC3)c2c1C`: the z-score is -0.334. With `CCOC(=O)c1c(NC(=O)C2CC2)sc(C)c1CC`, the z-score was -0.5. `COc1ccccc1NC(=S)NC(=O)c1ccc(-c2ccc(Cl)cc2)o1` showed a z-score of 1.42.

`CCOc1ccc(NS(=O)(=O)c2ccc(NC(=O)C3CCCO3)cc2)cc1` (stereo not drawn) came in with a z-score of -0.278.

Take `CCn1c(N2CCN(C(=S)NC)CC2)nc2ccccc21`: the z-score was -0.0787. As for `O=C1CCCC2=C1C(c1ccccc1)n1c(s/c(=C/c3cccc(F)c3)c1=O)=N2` (stereo not drawn), the figure is 1.06; as for `N#C/C(=C\c1ccccc1)c1nc2ncccc2[nH]1`, -0.196; as for `C=CCC1c2cccc(C(=O)O)c2C(=O)N1c1ccc(Cl)cc1` (stereo not drawn), -0.148. As for `c1ccc(Sc2ncnc3c2oc2ccccc23)nc1`, the figure is 0.585; as for `CCCCN(C)C(=S)Nc1ccc(Oc2ccccc2)cc1`, 1.42.

Take `Cc1ccc(S(=O)(=O)Cc2nc3ccccc3c(=O)[nH]2)cc1`: the z-score was -0.19. As for `CC(C)c1ccc(C(=O)CC2(O)C(=O)N(CN3CCOCC3)c3ccccc32)cc1` (stereo not drawn), the figure is 0.818. In the case of `COc1cccc(C(=O)O/N=C(\N)c2ccncc2)c1`, the z-score is -0.198. `CCOc1ccccc1Oc1c(C)oc2cc(OC(=O)c3ccco3)ccc2c1=O` gave a z-score of -0.141. As for `Cc1ccc(CSC2=NCCN2C(=O)C2CC2)cc1`, the z-score was -0.574. Consider `CCc1nnc(NC(=O)CCC(=O)N2CCN(CCOc3ccc(C)cc3)CC2)s1`, for which the z-score stood at 0.475. `CC(C)(C)n1ncc2c(=O)n(CC(=O)c3ccc(Cl)cc3)cnc21` came in with a z-score of 0.583. With `O=c1[nH]c2ccccc2nc1C(Cl)c1ccccc1` (stereo not drawn), the z-score was 0.0661. Molecule `CCCOc1cc(C)c(S(=O)(=O)N2CCOCC2)cc1C` returned a z-score of -0.463. Take `N#Cc1ccccc1NC(=O)CNc1ccc(Cl)c(C(F)(F)F)c1`: the z-score was 2.38. As for `COc1ccc(C)cc1NC(=O)CC(O)(C(F)(F)F)C(F)(F)F`, the figure is 0.00381; as for `O=S(=O)(NCCSc1ccccc1)c1ccc(F)cc1`, -0.368. As for `CCOC(=O)c1ccc(NC(=O)N2CCc3ccccc32)cc1`, the z-score was -0.768. With `COc1ccc(C2C(C(C)=O)=C(C)N=c3s/c(=C/c4ccc5c(c4)OCO5)c(=O)n32)cc1` (stereo not drawn), the z-score stood at 0.276. As for `CCCCSc1nnc(-c2ccc(OC)cc2)n1C`, the z-score worked out at 0.16. In the case of `CCCSc1nnc(NC(=O)c2sc3nc(-c4cccs4)ccc3c2N)s1`, the z-score is -0.693. On to `CCn1c(COc2ccc(Cl)cc2)nnc1SCc1nc2ccccc2[nH]1`, for which the z-score is -0.159. `COc1cccc(C2NC(=O)c3sc(=S)n(-c4ccccc4)c3N2)c1` (stereo not drawn) returned a z-score of 1. The molecule `O=C(O)CC(c1ccccc1)n1cccc1` (stereo not drawn) gave a z-score of -0.0906. The molecule `Cn1c(=O)cc(OCCCC(=O)NC2CCCC2)c2ccccc21` registered a z-score of -0.132. On to `O=[N+]([O-])c1ccc(N2CCOCC2)cc1NCc1ccccc1`, for which the z-score is -0.256.

The molecule `O=C(c1ccc(CN2CCOCC2)cc1)N1CCC(Cc2ccccc2)CC1` displayed a z-score of 0.0361. The value for `COc1ccc([N+](=O)[O-])cc1NC(=O)C(C)N(C)Cc1cccc(OC)c1OC` (stereo not drawn) was -0.728; that for `NS(=O)(=O)c1ccc(NC(=S)Nc2ccc(F)c(F)c2)cc1` was 0.0489; that for `O=C(O)CSc1nnc(Cc2ccccc2)n1Cc1ccccc1` was 0.689. The value for `COc1ccc(-c2nnc(SC(C(=O)c3c[nH]c4ccccc34)c3ccccc3)n2N)cc1OC` (stereo not drawn) was -0.204; that for `CSc1ccccc1-n1nnnc1SCc1ccccc1` was -0.676. The value for `Cc1cccc2cc(C#N)c(NCCNC(=S)NCCCN3CCOCC3)nc12` was 0.368; that for `CCOc1ccccc1OC(=O)c1ccco1` was 0.242. On to `COCCNC(=O)CN1CCC(NC(=O)C(C)(C)C)CC1`, for which the z-score came to 0.0135. In the case of `O=C(NCCCNc1ccc(C(F)(F)F)cc1[N+](=O)[O-])c1ccc(Cl)cc1`, the z-score was -0.166. The value for `O=C(Nc1ccc2c(c1)oc1ccccc12)c1ccc(Br)o1` was -0.605; that for `CC12CN3CC(C)(CN(C1)C3c1ccc(Cl)cc1Cl)C2=O` (stereo not drawn) was 0.0767; that for `Cc1ccc(C2Nc3ccccc3-c3nc4ccccc4n32)o1` (stereo not drawn) was -1.64.

The molecule `Cc1cc(C)c2c(N)c(C(=O)N3CCN(c4ncccn4)CC3)sc2n1` displayed a z-score of 0.00856. Molecule `O=C(Nc1cccnc1)c1cc(-c2ccc(Br)cc2)on1` gave a z-score of -1.57.

Regarding `O=c1cccccc1NCc1ccccc1`, the z-score is -0.106. Molecule `O=C(NCc1ccncc1)Nc1ccc(F)cc1` returned a z-score of 0.337. `Cc1cccc2cc(C#N)c(N3CCN(C)CC3)nc12` gave a z-score of -0.388. As for `Cc1ccc(NC(=O)C2CCCN(S(=O)(=O)c3c(C)noc3C)C2)nc1` (stereo not drawn), the figure is -0.0938; as for `CC(C)(C)c1nc(C(C)(C)C)c(Br)c(=O)[nH]1`, 0.318.

Take `CCCCN(C(=N)N1CCCCC1)c1nc(C)c([N+](=O)[O-])c(=O)[nH]1`: the z-score was -0.205. In turn, `CC(=O)/C(=C/N(C)C)Sc1ccc(C)cc1` returned a z-score of -0.0821. Molecule `Nc1ccc2nc(-c3cccs3)[nH]c2c1` showed a z-score of -0.935. The value for `CC1CC(C)CN(S(=O)(=O)c2cccc(C(=O)N3C(=O)c4cccc(N)c4C3=O)c2)C1` (stereo not drawn) was -0.133; that for `O=C(OCC(=O)N1CCN(c2ccccc2)CC1)C1=COCCO1` was -0.0336. The molecule `O=C(Nc1ccc(N2CCN(C(=O)c3ccccc3)CC2)c(Cl)c1)c1ccc(Br)o1` gave a z-score of -0.134. In the case of `C=CCC1(C#N)C(SC)=NC2=C(C(=O)CC(C)(C)C2)C1c1ccc(Br)cc1` (stereo not drawn), the z-score was determined as 0.236. For `Cc1sc(NC(=O)c2cc(-c3ccccc3)nc3ccccc23)c(C(N)=O)c1C`, the z-score is -0.081. As for `CCOn1c(=O)c(=O)n(OCc2ccccc2)c2ccccc21`, the figure is -0.158; as for `S=C(Nc1ccccc1)N1CCN(C2CCCCC2)CC1`, -0.324; as for `CCCCN1CC(O)=C(c2nc(-c3ccc(Cl)cc3)cs2)C1=N`, -0.145. Take `Cc1ccc(Cl)cc1NC(=O)COC(=O)C12CC3CC(CC(C3)C1)C2`: the z-score was 0.107 and -0.194. Molecule `CC(C)N(C(=O)C(F)(F)F)C(C(=O)NC1CCCCC1)c1ccncc1` (stereo not drawn) registered a z-score of 0.311. The value for `COc1ccccc1N1CC(C(=O)OCC(=O)c2ccc(F)cc2)CC1=O` (stereo not drawn) was -0.372; that for `COC(=O)c1nn(-c2ccc3c(c2)CCN3C(C)=O)cc1O` was -0.0858. `COC(=O)c1c(CSc2ccc(C)c(C)c2)noc1C(=O)NCc1ccc(OC)cc1`: the z-score was -0.148. As for `Cc1cccc(NC(=O)CSc2nc(-c3ccccc3)c(C#N)c(=O)[nH]2)c1C`, the figure is -0.322.

Molecule `CCC(C(=O)NCc1ccc(OC)cc1)n1nc(C)n2c(cc3occc32)c1=O` (stereo not drawn) displayed a z-score of 0.243. As to `O=C(c1cccs1)N(C(=O)c1cccs1)c1ccc(Br)cn1`, the z-score is 2.26. The value for `CC1C(=O)CCCCCCCCCC2C1(N1CCOCC1)CS2(=O)=O` (stereo not drawn) was 0.133; that for `N#CCSc1nnc2sc3ccccc3n12` was -0.0636; that for `CCCC(=O)Nc1ccc(C(=O)NN=C(C2CC2)C2CC2)cc1` was -0.291. As for `CCn1c(=O)c([N+](=O)[O-])c(NCC(O)c2ccccc2)c2ccccc21` (stereo not drawn), the figure is -0.241. As to `COc1ccc(C(=O)NC(=O)Nc2cc(C)ccn2)cc1`, the z-score was -0.705. Take `CC(NC(=O)Cc1cccs1)C(c1cccs1)N1CCN(c2ccccc2F)CC1` (stereo not drawn): the z-score was -0.436. `COc1ccccc1Oc1ccc2c(c1)C(=O)N(c1ccc(Br)c3cccnc13)C2=O` came in with a z-score of 0.318.

Take `Cc1ccc(CNC(=O)C2CC(=O)OC23CCCC3)c(C)c1` (stereo not drawn): the z-score is -0.122.

Molecule `Cn1nnc(NC(=O)CSc2ncn[nH]2)n1` had a z-score of -0.711. Regarding `COc1ccc(C(NC(=O)C(C)C)c2c(O)ccc3ccccc23)cc1OC` (stereo not drawn), the z-score was -0.145. Take `O=C(NCc1ccccc1)N1CCC(n2cnc3cc(F)ccc32)CC1`: the z-score is -0.134. Turning to `COC(=O)COc1ccc(S(=O)(=O)NCc2ccco2)cc1`, the z-score is -0.0668. `COC(=O)C1CCN(c2cc(=O)n(C3CCCCC3)c(=O)[nH]2)CC1` yielded a z-score of -0.0521. Consider `Cc1ccc2c(c1)C1(OCCO1)C(=O)N2`, for which the z-score was -0.0754. `O=c1cc(N2CCN(c3ccccc3)CC2)[nH]c(=O)n1Cc1ccc(F)cc1` showed a z-score of -0.202. The value for `Cc1cc(C)n(-c2ccc(C(=O)OCC(=O)Nc3ccc(S(=O)(=O)N4CCOCC4)cc3)cc2)n1` was 1.12; that for `COc1ccccc1N1CCN(C(=O)c2cc(-c3ccc4c(c3)OCO4)on2)CC1` was -0.0906. `C=CCNc1ncnc2ccccc12` came in with a z-score of -0.206. Take `COc1cccc(N2CC(C(=O)OC(C)C(=O)c3ccccc3)CC2=O)c1` (stereo not drawn): the z-score was -0.0599. Consider `COc1ccc(-n2nnc3c(=O)n(Cc4cc(C)ccc4C)cnc32)cc1`, for which the z-score is -0.177.

On to `Cc1ccc(NC(=O)c2cc(=O)c3ccccc3o2)c(C)c1`, for which the z-score worked out at 0.414. `O=C(NCCc1ccccc1)c1ccc(CS(=O)(=O)Cc2ccccc2F)o1` gave a z-score of -0.21.
